From the supplement of paper PMC11417369
± gives the standard deviation of the averaged measurements. This is one part of the list.

Tested on: PfAP2-I AP2 domain 3 (GST-tagged)
Assay: gcPBM binding intensity (ln(normalized median fluorescence intensity)); higher = stronger DNA binding
Procedure, shortened: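 GST-tagged P. falciparum DNA-binding domains produced in E. coli were incubated for 1 h on an Agilent 4 × 180k array of primer-extended double-stranded 36-bp intergenic genomic probes with negative controls. Binding intensity is the highest Masliner-normalised natural-log median intensity across replicate spots of either probe orientation, with bound protein detected by Alexa488 anti-GST antibody at 488 nm.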

Row | Sequence | gcPBM binding intensity (ln)
1 | ATGATAATTTTTTTCTCACACACAAATATTTTAATC [CACACA_site3665] | 7.72 ± 0.63
2 | CAATAATATATATATTGTACATTTTTTTTTATTATT [XGTACX_site3149] | 7.62 ± 0.41
3 | AAAGATTCTTTGAATTGTACAAATATATTTACTCAC [XGTACX_site8772] | 7.67 ± 0.59
4 | TATATTATTTTCTTTTGTACACATATATATCAGTGT [XGTACX_site664] | 7.89 ± 0.64
5 | ATGTTCCATTTTACTTGTACTAATTTTTTCCTATCT [XGTACX_site6474] | 7.88 ± 0.84
6 | ATTATTTTTAAAAATTGTACAGTATAAGAGAGAAAT [XGTACX_site7094] | 8.37 ± 0.5
7 | AATAAAAAAATATATTGTACTAATAATTATATGTTT [XGTACX_site2246] | 7.58 ± 0.49
8 | TATTGTAAAAAGATTACACACGTTCTATATACTTTT [CACACA_site5379] | 7.72 ± 0.76
9 | TTAATGGCAAAATAGGCACACACACCGATACATATA [CACACA_site8263] | 8.03 ± 0.55
10 | ATAATATTTAGGTGTGCACACAAACATACATATATA [CACACA_site9120] | 9.7 ± 0.16
11 | ACAGTAGCCAGTAACTGTACGGATTGTAGAGATCAG [XGTACX_site4873] | 7.74 ± 0.64
12 | AAAAAATCACAACACACACACACACTAATAAAAAAA [CACACA_site8410] | 7.96 ± 0.39
13 | AAATCACATAAAACATAATCAAATGAAATATAATCA [CACACA_negctrl_site123] | 7.38 ± 0.6
14 | TAAATATTATTATATACATGCACTTACAACTTTTTT [TGCATGCA_site877] | 8.55 ± 0.24
15 | ACTGTAAATTTATTCGGTACACATATAAATAATATT [XGTACX_site7346] | 7.83 ± 0.63
16 | AATTTTTGTTACAAGATGCACTTAATTTTTCTAAAT | 8.9 ± 0.2
17 | AATAAAAATTCAAGTTGTACTTTTTTAAAAATACAA [XGTACX_site3949] | 7.71 ± 0.15
18 | AAATTGAGACAACAGGTGCATATAAATATACAGTGT [GTGCAC_site9634] | 10.5 ± 0.23
19 | AAAATGAATAAAAATACACACATATATGTTATTCTC [CACACA_site2671] | 7.43 ± 0.52

Row | Sequence | gcPBM binding intensity (ln)
20 | AATAATATATATATTACACACTAATTGTATTATATA [CACACA_site448] | 7.67 ± 0.24
21 | CCAACATGCAGACGCACACACAAAAAAAGCATGCAT [CACACA_site74] | 8.18 ± 0.38
22 | TTAATACCCGGACACACACACACAAAATAAAATACA [CACACA_site4296] | 8.18 ± 0.23
23 | ATTTATTTATTTAGCTGTACATTTATACAGAACGAT [XGTACX_site3336] | 7.79 ± 0.48
24 | TAACAATATCTAGATACACACACATATCTCTCAATC [CACACA_site8122] | 7.58 ± 0.52
25 | TTTTCATACACTGCTAGTATATACTACCACTGACAT [GTGCAC_negctrl_site514] | 8.88 ± 0.54
26 | AAACATATATTAAGCACACACAAACAAAAAAACAAA [CACACA_site2549] | 8.795 ± 0.049
27 | ACACATAATATAAAGGTGCTATATTGTATTCATTTT [GTGCAC_site9457] | 10.1 ± 0.2
28 | TGATTCATTGATAAGGGTACATTTATAATTATGATA [XGTACX_site6319] | 7.59 ± 0.19
29 | ACGTATCAATTTATTGGTACACATAAATATATATAT [XGTACX_site5556] | 9.08 ± 0.2
30 | ACATTGAACAAAATAGTAAGCACATATATATATATA [GTGCAC_negctrl_site679] | 9.39 ± 0.42
31 | ATCATTTTGTGTTCAAGTACATAATGTTTTACACAA [XGTACX_site3565] | 7.77 ± 0.47
32 | AACGAAGCATAAAATGTTATGTATATATATAAATAT [TGCATGCA_negctrl_site304] | 7.61 ± 0.69
33 | TACCAAAAAAAAAAAATAATAATAAAAAAAAAAAAA [TGCATGCA_negctrl_site11] | 7.85 ± 0.68
34 | GCAAAACATTTTTAAAATAAAAATAATAAAATATAT [CACACA_negctrl_site219] | 7.62 ± 0.64
35 | CATACATTATAAGATACATGCATATATCTGAACATA [TGCATGCA_site797] | 8.27 ± 0.74
36 | ATGTGGAAATAGAGCACACATATATATAATATATAT [CACACA_site884] | 9.63 ± 0.24
37 | ATATATTATATAAAAAGTACTAAAATAGTAAGATGT [XGTACX_site7493] | 8.2 ± 0.65
38 | TATTCATTAAACCATACACACATAATTTTTTTATAA [CACACA_site4618] | 7.51 ± 0.43

Row | Sequence | gcPBM binding intensity (ln)
39 | GTGTGCCAAATTAGCACACACATATATACATGAATT [CACACA_site7346] | 9.34 ± 0.15
40 | TTATGAAAATATTTTTTTCGTTTGATGTATATGTTT [CACACA_negctrl_site1556] | 7.43 ± 0.57
41 | AAAAAATATAAATATGTAAAAAGAGAAAAAAAAAAG [GTGCAC_negctrl_site9] | 7.72 ± 0.48
42 | TGAAAATGGGAACCGTGTACAGGGCAGTTATAGGGG [XGTACX_site2950] | 8.86 ± 0.62
43 | TATAAACATAAAACCAGTACATATATATTTTTCTTC [XGTACX_site212] | 7.6 ± 0.41
44 | ATATTTAATTCATCATGTACACAAATAAGAAACAAA [XGTACX_site8076] | 8.22 ± 0.3
45 | TTGTTATGTTTTATTTGTACGTAGGTTTCTATCAAA [XGTACX_site7636] | 8.12 ± 0.35
46 | AAATTGAAATATTCCTGTACACATTTTGAAAACTTA [XGTACX_site6101] | 7.75 ± 0.7
47 | AAAATATAGTAACACATACACACATATATATTTATA [CACACA_site2504] | 7.76 ± 0.65
48 | TATTAAACTAAATGTAGTACATACACAAAAGAAACC [XGTACX_site606] | 8.39 ± 0.45
49 | TGTTTGAATATAATCACACATTTATATAAAAAGTTA [CACACA_site5237] | 7.36 ± 0.35
50 | TCTTTTTGCATGTGTGTGCGCACAAAATACACAAAA [GTGCAC_site9718] | 10.5 ± 0.028
51 | TAACAATAACTTTATACACACATAATATAAATATAT [CACACA_site7635] | 7.62 ± 0.35
52 | TAAAATTTTAACAAAAAAAAAAAAAAAAAAAGAAAA [CACACA_negctrl_site1335] | 7.4 ± 0.47
53 | ATAAAGAAAAATAGAAGTACATATATGCATGTTAAT [XGTACX_site4480] | 8.38 ± 0.79
54 | AACAATAAAAATAATTGTACAAGTCTAAAAAAAATT [XGTACX_site20] | 7.63 ± 0.62
55 | ATAACAAAATAATAATGTACGTATAAATATAATTTA [XGTACX_site6049] | 7.82 ± 0.25
56 | TATATCATCATGTATGTACACACATACATATATTAT [CACACA_site8387] | 7.82 ± 0.33
